The supplement of paper PMC4466236
In all, about 33,000 sequences were measured (“E-score (dimensionless, -0.5 to 0.5)”: median about -0.058, highest 2% from about 0.35 on). Some of the results follow.

system: MvaT; assay: PBM 8-mer E-score (mean of HK and ME arrays) (E-score (dimensionless, -0.5 to 0.5)); higher = stronger relative binding preference; most listed sequences are background and not binding sites
How it was run: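 Full-length P. aeruginosa MvaT, with glutathione S-transferase fused to its N-terminus (cloned into pTH6838 by isothermal assembly), was tested by protein binding microarray using a previously described protocol. Two universal double-stranded 60-mer arrays (ME and HK) were used, each with a constant 25-mer primer region and a variable 35-mer region covering all 8-mers. The rank-based 8-mer E-score (-0.5 to 0.5) is the mean of the two arrays, parsed with a custom Python script.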

Sequence	PBM 8-mer E-score
TCCCGGCA	-0.125
CTTGTATA	0.246
CCACCCCC	-0.323
CAAGAAAG	0.00724
AGTACTGC	0.0406
ATGTGCTG	-0.0632
GTCTGTGA	-0.134
GAAAATCA	0.0231
CAGGACAA	-0.00859
CCCACGTA	-0.107
AGTCATGC	-0.244
CCGTACGA	-0.141
CCGGCCGC	-0.143
ACACTCAG	-0.115
AGGAAATA	0.151
CTTCACCA	-0.081
AAAAAAGG	0.0491
CTCTAGGA	-0.118
CTGAAATC	-0.0759
ACAGTGTC	-0.0753
TGTCAAAA	0.119
AATTGTAT	0.271
ATTTTGGA	0.212
CACTTCCC	-0.113
TTAGGAAA	0.114

Sequence	PBM 8-mer E-score
CTAGAAGA	-0.0187
AAGCTCCA	-0.0879
ACCGGCCC	-0.197
CGCCAGAA	-0.0432
CATTCCAA	0.00827
ATACACAG	0.0306
GGGTTATA	0.23
CATAAAGC	-0.128
AGGAATAC	0.17
TGGGGCAA	-0.0406
CGGGTATC	-0.0923
GCGGTCGA	-0.16
ATATTTAG	0.342
ATAGCATC	0.00869
AATTTCGC	0.0294
ATACGGCG	-0.11
GATCCGGA	-0.0845
AATTGCTG	0.0923
ATACCAAC	0.221
ACACGGCT	-0.214
ATGCGGCC	-0.188
GTCAGACA	-0.167
CCCTTGCA	-0.14
GGAGACGA	-0.133
CATACGCG	-0.0229

Sequence	PBM 8-mer E-score
GCCATGAA	-0.0834
CCAATGAC	-0.153
CGGCCACC	-0.225
TAACCCCA	-0.108
GCATCGAC	-0.194
CTTCCGAA	0.0328
TCCTAAAA	0.0593
CACCAGAA	-0.0779
AGGACACA	-0.021
GATGACGA	-0.075
GATCGTTA	-0.0614
CCAGGCGA	-0.206
ATCAGCTG	0.0407
ACCCCCGT	-0.319
CCTTACGC	-0.151
CTCCTCCC	-0.316
AATTGCTA	0.232
AATTACTA	0.323
CATATTAC	0.294
AATGCTGG	-0.0685
AGACTCGC	-0.134
ACGGGGCA	-0.17
CATACTCC	0.00539
AGTTGCTG	0.112
AAGATACG	0.0729

Sequence	PBM 8-mer E-score
CGCATAAG	0.113
GCTGAAAC	-0.102
ATGAGTCG	0.0116
GACAGCTA	-0.122
ATTCTGGG	0.0485
CCCGCGGA	-0.176
AAACCAAG	0.1
GGTCGGAA	-0.223
AGGACGTA	-0.138
CAGTTTTC	0.0105
AGCCTGAG	-0.26
AATGTCAA	0.207
AGACAACC	-0.158
ATGCACAG	0.0355
AAAACAGG	0.0694
CAGTCAAC	0.0726
ACATAAAG	0.101
AGCAGCCC	-0.222
GGGCTCTA	-0.197
TATGCAGA	0.119
CATTAAGA	0.255
GTAAGTGA	0.118
CGATATGA	0.0112
ACTTGCTA	0.182
ACAGGTTC	-0.208

Sequence	PBM 8-mer E-score
AAGTAGGA	0.000117
CGATACCG	-0.086
CCCATCGA	-0.102
AAGGTCCC	-0.342
ACGGTAAC	-0.0728
ATCCGGGA	-0.128
GCTCTGAA	-0.0802
ATAGTCAC	-0.0846
AGTGTCCG	-0.142
AGGATATC	-0.0693
CGATTCAA	-0.0643
ACGAATCT	-0.0679
GCCACAAA	-0.0396
CAGACCGA	-0.176
CTTGATCA	-0.0803
GGGCTCAC	-0.315
ATCACACC	-0.0388
CATGTGGA	-0.224
CTCTACAC	-0.0361
ACCAGGTC	-0.195
AGACGAAC	-0.107
ATTATCAG	0.354
AGATGTAC	0.0861
ATTAAATA	0.421
ATACAGGC	0.0924

Sequence	PBM 8-mer E-score
CCTGCAAC	-0.158
AGGGTAAC	0.0337
CGATGAGA	-0.14
AGCAGGTA	-0.0448
GTATAGAC	0.0564
CCTATGTA	0.175
GCAGATGA	-0.166
ACCAAGGC	-0.135
CAAACCGG	0.0302
CGCAAACG	-0.0969
CGGCGCTA	-0.183
CTCGTGAC	-0.262
ACGACCAA	-0.0422
AAATTTCT	0.148
CCTATGCA	-0.113
CACAGAGG	-0.0767
GGACCTAC	-0.156
ACACTTCG	0.0727
CCTGGCCG	-0.209
GCTTGGAA	0.0318
AGGTAATG	-0.0373
AATTTAAA	0.443
CAACGGTC	-0.201
AGAGGCGA	-0.142
ACACGTAC	-0.0933

Sequence	PBM 8-mer E-score
GAGCAATC	-0.165
GGAGGCCA	-0.145
ACCTTCTA	-0.175
GCCCCATA	-0.0208
AGAGGCAA	-0.165
CCAACAGA	-0.0305
GCTAGGAA	-0.167
CCTACGCG	-0.159
AGTGCTCG	-0.127
CGGGTTTA	0.15
AGCGGGGA	-0.0985
ACACCGCT	-0.0267
CATTCTAG	0.135
ATCTCGAG	-0.0243
GGGCTAAA	0.0916
CACCTACC	-0.238
CAGAAAAA	-0.0701
ATATGGTG	0.226
GCTTCCGA	-0.116
CTCTGTAA	-0.0285
ACCCCCAG	-0.264
GTGAATTA	0.264
GACCAGTA	-0.108
CCAACTTC	0.232
ACAGAGGT	-0.141

Sequence	PBM 8-mer E-score
CTTAGAGC	-0.22
AGCTTCCA	-0.151
ACAGGCCT	-0.178
CGTAACAC	0.0804
CGTTGAAC	0.0146
GGGTGGTA	-0.157
AGCGATAA	-0.0184
TCTCGCCA	-0.251
CCACACGC	-0.0967
GACCACGC	-0.0979
CTGGTAGA	-0.0635
CGTGCTAC	-0.00682
ACCTGGTC	-0.187
CGTTGTTC	0.108
CAAGTAAA	0.245
CGGGGTAA	-0.0262
CATTCGGA	-0.0283
CCATCCAA	-0.0159
ACAATTTC	0.19
ATCTGCCG	-0.0663
AGCCCGCG	-0.335
ATTTTTTA	0.157
AATGTATG	0.286
GGGAAACA	0.102
CCGAACGA	-0.246

Sequence	PBM 8-mer E-score
GACCGGAA	0.0217
CATCCATG	-0.0436
GATCGCCA	-0.0416
TGTCGGAA	0.0192
AAAGCGTG	-0.15
AGGGCGAA	-0.147
CAAACGAC	0.0654
CCAGCCCA	-0.258
CCTGAGGC	-0.235
GCGTGTCA	-0.108
GCCCGGGC	-0.259
ACTCCAGA	-0.0377
CTTGAAAC	-0.0601
CACTCTTA	0.116
GACACCTC	-0.252
ATGCGCAC	-0.0214
CTTCGACA	-0.0699
AGAACGAT	-0.115
ACTAGTAG	0.0918
ACACTCTA	0.139
ATCGTACA	0.0903
AGGTCTCA	-0.352
CATCCTAG	-0.149
AGGAAGAG	-0.188
CGGAATAC	0.0866

Sequence	PBM 8-mer E-score
GAGAGTGA	-0.102
AAATGTCA	0.108
ACCCGTCT	-0.123
ACGGAGAG	-0.191
TCCTCACA	0.017
TACTAAAA	0.335
CCAAGGCG	-0.258
ATAAGTAC	0.305
ACAGAGGC	-0.128
GACACCGC	-0.2
CCGCAGAC	-0.181
CGTTTTTC	0.0732
ATTAAGGG	0.205
GAGTCAAC	-0.213
AAGGATAT	0.165
TGAGTGCA	-0.183
AAGAAGGA	-0.186
AATTAGGA	0.0771
AATTTTTA	0.34
AACACCCG	0.00525
ACACCGCA	-0.047
CCCGCAAG	-0.138
GCCTGCGA	-0.156
CGTGTTTA	0.152
CGCGGACA	-0.0919

Sequence	PBM 8-mer E-score
CGCTTTAC	-0.101
AACGGGGA	-0.0679
GCCAAGGA	-0.241
CTGTTAGC	-0.0149
GCGGGAGA	-0.251
GCAATTGA	0.182
TCATCCAA	0.0567
AATGAACT	0.148
CAGTATAG	0.0504
AAAGATGA	0.215
CACACGGC	-0.249
ACTAAATC	0.135
CGCGCGCC	-0.318
CAAAACGC	-0.105
CAATCACC	-0.0923
AAGATGAC	0.0274
AGATTGAG	0.0741
GGAAGTGA	-0.0751
AAAAGCTG	0.0083
ACAAACAT	0.306
CGAACGGA	-0.271
CACATGAC	-0.0215
AATAATGT	0.408
ACACGGGT	-0.00739
ATTCAGTA	0.103

Sequence	PBM 8-mer E-score
ATGTCTTA	0.181
CCAGCTAA	-0.0731
CCAGAGTC	-0.0329
GTAACGCA	0.0117
GACCGGCA	-0.0452
GTGATGAA	-0.0288
ACCTACAC	0.0215
GTAATGCA	0.255
TCCCAAGA	-0.125
GACCCGGA	-0.112
CCAAGTGC	-0.0358
GGAATCAA	0.0726
ACACGCCC	-0.0817
GACATGGC	-0.23
CATACCCG	-0.127
GAGTACAA	0.138
CCCGAGCA	-0.181
CGGACAAC	-0.0812
ATAGTGAA	0.168
AAGTCGGT	0.101
GCGCTAAA	0.122
GTTCGTTA	0.0979
CGATTTAG	0.0547
GGCACTAC	-0.0989
GAGTCGCC	-0.26

Sequence	PBM 8-mer E-score
ACTATTCC	0.149
ATGTGCGG	-0.158
GGTACTGA	0.00299
CGGTTGAG	-0.119
GGCGTTGA	-0.0479
CAACACAG	-0.0835
GTTACTGA	0.0954
GGCCGAGA	-0.189
TGCTGGAA	-0.0509
ACCTTGCC	-0.104
ACGCCAAC	0.0447
AGAACACG	-0.104
AACGCGTA	0.0628
CGCGTTTC	0.0432
AGCGGTGC	-0.243
GATATTAC	0.293
AGGTGTAG	-0.0839
CATGCAGA	-0.0592
AATCGTAT	0.0883
CTAGGCTA	-0.149
AGCGGCAC	-0.0827
AAATATTC	0.363
GGGTAACC	-0.246
CGAGTAAA	0.0642
GTCTGGGA	-0.0677

Sequence	PBM 8-mer E-score
AAATAGAA	0.31
CCCTTGGC	-0.27
CATCCCTA	-0.147
CCTACTGC	-0.194
GTCTACAC	-0.00201
ACCGGAAG	-0.217
AGAGCTAT	0.0206
AATATCCG	0.223
GTCAGTAA	-0.0177
AACTAACA	0.292
CGAGCGAC	-0.19
AAGCATCT	-0.142
AGTAACCA	0.169
AACCACTC	0.00691
ACAATTGT	0.0806
ACCTATGA	-0.207
CCCTATCA	-0.0873
AACTTTTC	0.277
AGGGCCGG	-0.262
